{
  "source": "ChEMBL document CHEMBL4888484",
  "about": "“Replenishing the malaria drug discovery pipeline: Screening and hit evaluation of the MMV Hit Generation Library 1 (HGL1) against asexual blood stage Plasmodium falciparum ,using a nano luciferase reporter read-out” (2022)",
  "note": "In all, about 150,000 compounds went through this assay and about 540 (0.36%) showed an effect of 50% or more. This is one part of the list.",
  "data": [
    {"test_system": "Plasmodium falciparum", "test": "Primary screen in NF54 nanoGlo assay, in single point, at 2uM, 72h; a lower Z score goes with more inhibition", "format": "functional, Erythrocyte", "settings": "timepoint 72 hour", "units": {"% Inhibition": "%"}, "values": [
      {"smiles": "O=C(Nc1ccc2nc3n(c(=O)c2c1)CCCC3)[C@@H]1CCCO1", "% Inhibition": -9, "Z score": 1.09},
      {"smiles": "CC(C)=CCN1C(=O)[C@@H]2CC[C@H]1CN(C(=O)CCc1ccncc1)C2", "% Inhibition": -13, "Z score": 1.23},
      {"smiles": "CCN(C(=O)c1coc(COc2ccc3sc(C)nc3c2)n1)C1CCOCC1", "% Inhibition": -19, "Z score": 2.39},
      {"smiles": "O=C(N[C@@H](Cc1ccccc1)C(=O)Nc1nccs1)C1COc2ccccc2O1", "note": "(stereo not given in full)", "% Inhibition": -4, "Z score": 0.59},
      {"smiles": "CNC(=O)N[C@H]1CCCCc2sccc21", "% Inhibition": -17, "Z score": 3.31},
      {"smiles": "CCOC(=O)c1cn(C[C@H]2CCCO2)cn1", "% Inhibition": -19, "Z score": 2.16},
      {"smiles": "CC(C)c1n[nH]c2c1CN(C(=O)c1ccc(-c3nccc(N)n3)cc1)CC2", "% Inhibition": -7, "Z score": 1.48},
      {"smiles": "Cc1ccc(NC2CCOCC2C)cc1C(=O)NC(C)C", "note": "(stereo not given)", "% Inhibition": -5, "Z score": 0.89},
      {"smiles": "Cn1cc(Cl)c(C(=O)N2CCC(c3cscn3)CC2)n1", "% Inhibition": -15, "Z score": 2.02},
      {"smiles": "CC(C)Cc1csc(CN2C(=O)CNC2=O)n1", "% Inhibition": -21, "Z score": 3.22},
      {"smiles": "C[C@@H](Cn1cncn1)C(=O)NCC1(CO)CCC1", "% Inhibition": 0, "Z score": 0},
      {"smiles": "Cc1ccc2c(Nc3ccc(C)c(C)c3)c(C(=O)N3CCCC3)cnc2n1", "% Inhibition": -6, "Z score": 0.91},
      {"smiles": "CCCc1cnc(C)nc1-c1cccc(C(=O)N2CCS(=O)(=O)CC2)c1", "% Inhibition": -3, "Z score": 0.52},
      {"smiles": "Cc1cc(C)nc(CN(C)C(=O)c2cccc(O)n2)c1", "% Inhibition": -7, "Z score": 1.05},
      {"smiles": "CCCN(Cc1cc(NC(=O)C(C)C)ccc1N(C)C)C(=O)c1ccc(F)cc1", "% Inhibition": -15, "Z score": 2.62},
      {"smiles": "CCC[C@H]1CN(c2noc(C3CC3)n2)C[C@@H]1C(=O)O", "% Inhibition": -8, "Z score": 1.31},
      {"smiles": "O=C(c1scc2c1CCCC2)N1CCOC[C@@H](O)C1", "% Inhibition": -11, "Z score": 1.68},
      {"smiles": "O=C(NC[C@H]1C[C@@H]1c1ccc(Cl)cc1Cl)c1cccc(=O)[nH]1", "% Inhibition": -4, "Z score": 0.8},
      {"smiles": "Cc1cc(OCc2nc(C)c(C(=O)NC[C@H]3CCCO3)s2)ccc1Cl", "% Inhibition": -3, "Z score": 0.48},
      {"smiles": "c1cc(Oc2ccc3nnnn3n2)cc(-c2nnco2)c1", "% Inhibition": -14, "Z score": 1.28},
      {"smiles": "CCCS(=O)(=O)N1CC[C@H](Cc2nnc(-c3ccccc3)o2)C1", "% Inhibition": -2, "Z score": 0.31},
      {"smiles": "COc1ccc(Cl)cc1N(Cc1ccccc1)Cc1ccccc1", "% Inhibition": -2, "Z score": 0.32},
      {"smiles": "O=C(CC1=CCCCC1)N[C@H](c1ccc(F)cc1)c1ncc[nH]1", "% Inhibition": 1, "Z score": -0.1},
      {"smiles": "N#Cc1cccc(COc2cccc(CNCC3(O)CCOCC3)c2)c1", "% Inhibition": -2, "Z score": 0.34},
      {"smiles": "COc1ccc2nc3oc(C(=O)N[C@@H](C)CCc4ccccc4)cc3cc2c1", "% Inhibition": 29, "Z score": -3.88},
      {"smiles": "CCCCn1nc(CC2CCN(C)CC2)nc1Cn1cc(C)c(=O)[nH]c1=O", "% Inhibition": 0, "Z score": 0.07},
      {"smiles": "O=C(CN1C(=O)C2(CCCC2)N=C1O)Nc1ccc(Oc2ccccc2)cc1", "% Inhibition": 3, "Z score": -0.36},
      {"smiles": "CCCN1CCN(C(=O)CCn2ccnc2)C(C)(C)C1=O", "% Inhibition": -17, "Z score": 1.81},
      {"smiles": "CCc1onc(C)c1[C@@H]1CCCN1Cc1cc(OC)c(O)c(OC)c1", "% Inhibition": -6, "Z score": 1},
      {"smiles": "COCC1(CNCc2ccc(C)cn2)CCC1", "% Inhibition": 11, "Z score": -1.53},
      {"smiles": "Cn1cc([C@@H](NC(=O)c2ccnc(C(=O)O)c2)C(C)(C)C)cn1", "% Inhibition": -10, "Z score": 1.55},
      {"smiles": "O=C1CC[C@@H](C(=O)NCCc2ccc(O)cc2)NC(=O)N1", "% Inhibition": 3, "Z score": -0.43},
      {"smiles": "Cn1cc(NC(=O)c2cc(-c3cccc(Cl)c3)nn2C)cn1", "% Inhibition": -8, "Z score": 1.07},
      {"smiles": "CC(NC(=O)c1ccoc1)C(=O)NC(C#N)c1cccc(Cl)c1", "note": "(stereo not given)", "% Inhibition": -6, "Z score": 1.1},
      {"smiles": "O=C1CCCc2cc3c(cc2N1)OCCO3", "% Inhibition": -2, "Z score": 0.3},
      {"smiles": "Cn1cccc1C(O)CCNC(=O)C1CC=CCC1", "note": "(stereo not given)", "% Inhibition": -8, "Z score": 0.92},
      {"smiles": "CO[C@@H](Cn1c(=O)ccn1-c1ccccn1)C1CCCC1", "% Inhibition": -5, "Z score": 0.96},
      {"smiles": "Cc1ccc2c(C)cc(N3CCC[C@H](O)CC3)nc2c1C", "% Inhibition": 5, "Z score": -1.08},
      {"smiles": "CN1c2ccccc2N(CCNC(=O)CC(F)(F)F)S1(=O)=O", "% Inhibition": -16, "Z score": 2.4},
      {"smiles": "Cc1ccccc1[C@]1(O)CCN(CC(=O)NCC2CCCCC2)C1", "% Inhibition": -5, "Z score": 0.95},
      {"smiles": "CN(C(=O)c1cc(=O)c2cccc(F)c2[nH]1)[C@H]1CS(=O)(=O)C[C@@H]1O", "% Inhibition": -16, "Z score": 2.25},
      {"smiles": "CN1C[C@@H](NC(=O)Nc2ccc(-c3cc[nH]n3)cc2)CCC1=O", "% Inhibition": 1, "Z score": -0.15},
      {"smiles": "COc1ccc(-c2nnc(N3C[C@@H]4[C@@H](CF)[C@@H]4C3)n2C)c(OC)c1", "% Inhibition": -5, "Z score": 0.88},
      {"smiles": "O=C(c1c(F)cccc1F)N1CCC[C@H]1c1cccs1", "% Inhibition": -3, "Z score": 0.48},
      {"smiles": "CC(C)C(=O)N1CCC([C@@H]2CN(C(=O)c3ccc4ccccc4n3)C[C@H]2CO)CC1", "% Inhibition": 3, "Z score": -0.39},
      {"smiles": "CCCCn1nc(-c2ccco2)nc1-c1cn[nH]c1", "% Inhibition": -7, "Z score": 1.22},
      {"smiles": "Cc1cc(C2CCC2)nc(N2C[C@H](NC(=O)CCO)[C@@H](C(C)C)C2)n1", "% Inhibition": -10, "Z score": 1.72},
      {"smiles": "CCn1nc(NC(=O)c2ccc(CN3CCN(C(C)C)CC3)cc2)cc1C", "% Inhibition": -3, "Z score": 0.54},
      {"smiles": "O=C(NCCn1cc(-c2ccncc2)cn1)C1CCCCC1", "% Inhibition": 7, "Z score": -0.94},
      {"smiles": "CCOc1ccc(C(=O)N2CCCCC2)cc1N[C@H]1CCN(C(C)C)C1=O", "% Inhibition": 8, "Z score": -1.04},
      {"smiles": "COCCN(C)S(=O)(=O)c1cc2c(cc1N1CCCCCC1)Oc1ccccc1NC2=O", "% Inhibition": -10, "Z score": 1.46},
      {"smiles": "COc1ccc(S(=O)(=O)N2CCN3C(=O)N(C4CCOCC4)C[C@H]3C2)cc1", "% Inhibition": -2, "Z score": 0.26},
      {"smiles": "COc1cc(C(=O)N(CCO)Cc2ccsc2)on1", "% Inhibition": 11, "Z score": -1.54},
      {"smiles": "Cc1nc2cc(NC(=O)c3ccc(=O)[nH]n3)ccc2o1", "% Inhibition": -9, "Z score": 1.73},
      {"smiles": "O=c1c2nccnc2ncn1Cc1ccc2c(c1)CCCO2", "% Inhibition": -10, "Z score": 1.68}
    ]}
  ]
}
